In paper PMC4336329 (PLoS ONE, 2015):
Hit rate of the full screen: of about 310,000 compounds, about 2,200 (0.71%) showed an effect of 50% or more. Effects have a minus sign here. This is one part of the list.

Each compound was assayed against human ether-à-go-go-related gene (hERG) potassium channel (human, UniProt Q12809) (assay: primary screen, population patch clamp on CHO cells stably expressing hERG).
Chain of human ether-à-go-go-related gene (hERG) potassium channel (Q12809 whole entry, looked up): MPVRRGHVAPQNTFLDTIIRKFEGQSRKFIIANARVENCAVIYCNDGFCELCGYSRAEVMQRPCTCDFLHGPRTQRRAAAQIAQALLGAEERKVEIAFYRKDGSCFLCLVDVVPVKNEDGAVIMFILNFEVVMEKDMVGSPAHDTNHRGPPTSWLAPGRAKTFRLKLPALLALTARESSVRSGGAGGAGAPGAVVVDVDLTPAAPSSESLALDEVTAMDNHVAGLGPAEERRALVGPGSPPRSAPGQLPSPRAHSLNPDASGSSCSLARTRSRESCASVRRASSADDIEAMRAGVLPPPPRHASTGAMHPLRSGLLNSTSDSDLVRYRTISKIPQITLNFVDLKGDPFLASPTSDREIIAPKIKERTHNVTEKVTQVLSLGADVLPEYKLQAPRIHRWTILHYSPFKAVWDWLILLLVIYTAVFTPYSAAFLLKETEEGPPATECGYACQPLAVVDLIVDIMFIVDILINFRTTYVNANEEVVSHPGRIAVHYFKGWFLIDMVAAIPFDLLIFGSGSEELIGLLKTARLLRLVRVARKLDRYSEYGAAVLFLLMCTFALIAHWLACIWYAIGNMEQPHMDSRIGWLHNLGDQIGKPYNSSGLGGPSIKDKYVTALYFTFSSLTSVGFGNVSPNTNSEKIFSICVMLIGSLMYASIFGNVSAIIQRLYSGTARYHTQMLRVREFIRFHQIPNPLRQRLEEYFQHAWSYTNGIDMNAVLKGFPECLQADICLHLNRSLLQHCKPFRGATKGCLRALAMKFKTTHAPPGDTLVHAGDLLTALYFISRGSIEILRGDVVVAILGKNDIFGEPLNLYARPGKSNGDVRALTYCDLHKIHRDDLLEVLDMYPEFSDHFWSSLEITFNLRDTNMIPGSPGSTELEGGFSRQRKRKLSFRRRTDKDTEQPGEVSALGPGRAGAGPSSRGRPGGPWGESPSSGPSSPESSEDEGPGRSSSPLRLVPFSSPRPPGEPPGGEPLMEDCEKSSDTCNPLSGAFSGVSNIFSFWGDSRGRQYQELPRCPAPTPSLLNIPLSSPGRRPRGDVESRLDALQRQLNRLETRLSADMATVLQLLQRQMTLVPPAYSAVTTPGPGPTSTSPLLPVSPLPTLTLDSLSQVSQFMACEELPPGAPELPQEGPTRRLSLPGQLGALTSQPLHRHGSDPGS

Structure (SMILES) | hERG current change (%, negative = inhibition) at 1uM
CC1(C(=O)O)CCC(C(=O)Nc2ccccc2)C1(C)C (stereo not shown) | 13.5%
O=C(Nc1nnc(C2CC2)s1)C1Cc2ccccc2CN1S(=O)(=O)c1cccs1 (stereo not shown) | 9.47%
CCOc1ccc(C(=O)NCC(=O)NC(C)CCc2ccccc2)cc1OCC (stereo not shown) | -2.24%
COc1ccc(CNC(=O)c2ccc(Cn3cc(Cl)cn3)o2)cc1 | 6%
CC(Sc1nnnn1C)C(=O)Nc1ccc(Oc2ccccc2)cc1 (stereo not shown) | 10.1%
Cc1ccc(S(=O)(=O)N2CCOC2CNC(=O)C(=O)NCCc2ccc(S(N)(=O)=O)cc2)cc1 (stereo not shown) | 8.36%
CC(C)CCNC(=O)C1CC(=O)N(CCc2ccccc2)C1 (stereo not shown) | 7.92%
CC(=O)c1c(N2CCOCC2)nc(=S)n(Cc2ccccc2)c1C | -14.5%
Cn1c(=O)c2c(SC3CCCC3)nc(C3CC3)nc2n(C)c1=O | 15.7%
Cl.OC(CNCCCN1CCCCC1)COc1ccccc1 (stereo not shown) | 1.25%
Cc1ccccc1NC(=O)Cn1c(=O)sc2ccccc21 | 6.46%
COc1ccc(Br)cc1C(=O)O | -2.68%
COCCNC(=O)c1onc(CSc2ccccc2)c1C(=O)O | 14%
Cc1ccc(OCc2cc(C(=O)NCCc3cccnc3)no2)cc1C | -4.55%
COc1cccc(CN(C)CC(=O)NCc2ccccc2Cl)c1OC | 10.6%
O=C(CNS(=O)(=O)c1cccc2nsnc12)NC1CCCCC1 | 8.71%
Cc1ccc(C(=O)O/N=C2\CCCc3ccccc32)cc1 | 9.99%
CCOc1ccc(-c2nc(-c3cccs3)c(CC(=O)O)s2)cc1OC | 16.2%
Cc1cccc(NC(=S)Nc2ccc(Cl)c(Cl)c2)c1 | 14%
Cc1cc2nccc(-c3ccncc3)n2n1 | 28.6%
COc1ccccc1N(CC(=O)NC1CC2CCC1C2)S(=O)(=O)c1ccc(C)cc1 (stereo not shown) | -2%
CC(=O)N1CCOc2ccc(S(=O)(=O)NCc3ccc(C)cc3)cc21 | 14.6%
Cn1c(-c2sccc2OCc2cccc(C(F)(F)F)c2)n[nH]c1=S | 11.7%

Structure (SMILES) | hERG current change (%, negative = inhibition) at 1uM
COc1ccc(Cl)cc1NC(=O)/C=C\C(=O)O | 2.73%
COC(=O)C1CCN(C(=O)c2sc3nc(-c4ccc(F)cc4)cn3c2C)CC1 | -22.5%
COCCn1c(SCC(=O)Nc2cc(C)on2)nc2ccccc2c1=O | 9.93%
O=C(C1CCCN(Cc2cc(Br)ccc2O)C1)N1CCCCC1.O=C(O)C(=O)O (stereo not shown) | -10.3%
CC1CCCN(C(=O)c2nn(C)c3c2CSc2ccccc2-3)C1 (stereo not shown) | -1.58%
CC(C)(C)c1ccc(-c2nc(C#N)c(N3CCC(C(N)=O)CC3)o2)cc1 | 3.6%
CC(C)c1ccc(NC(=O)NCc2cccnc2)cc1 | 6.81%
CN(C)C(=O)Oc1ccc2c(=O)c(Oc3ccccc3Br)coc2c1 | 11.1%
CCOC(=O)C1=C(C)NC(C)=C(C(=O)OCC)C1C(=O)OCC(=O)N1CCC(C)CC1 | 12.8%
Cc1cccc(OCCCC(=O)Nc2ccc(Br)cc2)c1 | 7.3%
O=[N+]([O-])c1cccc(-c2nc3ccc([N+](=O)[O-])cc3[nH]2)c1 | 10.3%
CC(C)Cn1c2c(c(O)c(C(=O)Nn3c(Cc4ccccc4)nc4ccccc4c3=O)c1=O)CCCC2 | 9.27%
CCOC(=O)N1CCC(NC(=O)c2cnn3ccccc23)CC1 | 12%
CCCCNC(=O)N(c1c(N)n(Cc2ccccc2)c(=O)[nH]c1=O)C1CCCC1 | 13.2%
CNc1ncnc(Sc2ccc(Cl)cc2)c1[N+](=O)[O-] | 10.1%
CCC(CC)C(=O)Nc1cccc(/C(C)=N/NC(=O)c2ccccc2Cl)c1 | 5.17%
O=C(Nc1ccncc1)c1ccc(Cl)c(S(=O)(=O)N2CCc3ccccc32)c1 | 11.5%
S=C(NCCCc1ccccc1)Nc1ccccc1Cl | 5.96%
O=C(N/N=C/c1ccc(N2CCOCC2)s1)c1ccccc1Cl | 13.5%
C[N+](C)(C)CCOC(=O)C1(c2ccccc2)CCCC1.[I-] | 4.04%
O=C(O)CCCNC(=O)Cc1ccccc1 | 12.7%
Cn1c(=O)c2c(nc(CN3CCN(C(=O)c4ccco4)CC3)n2Cc2ccc(Cl)cc2)n(C)c1=O | -37.2%
COc1ccc(OCCCC(=O)Nc2ccc(N3CCOCC3)cc2)cc1 | 9.59%
